Source: PubChem BioAssay AID1347055 (National Center for Advancing Translational Sciences (NCATS), 2019)
Among all 54,000 compounds or so, about 120 (0.22%) were called active. This list was built around the results that the source calls inconclusive (neither active nor inactive); the mix of calls is not that of the screen. Calls come from the whole dose curve; as a rule, active = well fitted inhibition curve with a large enough effect; inconclusive = small, poorly fitted or top-dose-only effect, or effect the other way; inactive = flat fitted curve, though single readings scatter. No potency is given beside an inconclusive call; the fits are too rough.

biological target: Fumarate hydratase, mitochondrial (Homo sapiens) (UniProt P07954); assay: Identification of activators of human fumarate hydratase by quantitative high-throughput screening; details: FH coupled MDH/diaphorase resazurin fluorescence, 15 min; activity change, negative = inhibition: at 79.9 µM (top of the series); note: the screen sought activators but most active calls are inhibition curves; nearly all actives have a fitted effect of over 45% in size
% is set by controls: 0 for no effect and ±100 for the full control effect; potency is the fitted concentration of half-maximal effect; tags give direction and shape of the fitted curve.

Chain of UniProt P07954 (P07954 whole entry, looked up): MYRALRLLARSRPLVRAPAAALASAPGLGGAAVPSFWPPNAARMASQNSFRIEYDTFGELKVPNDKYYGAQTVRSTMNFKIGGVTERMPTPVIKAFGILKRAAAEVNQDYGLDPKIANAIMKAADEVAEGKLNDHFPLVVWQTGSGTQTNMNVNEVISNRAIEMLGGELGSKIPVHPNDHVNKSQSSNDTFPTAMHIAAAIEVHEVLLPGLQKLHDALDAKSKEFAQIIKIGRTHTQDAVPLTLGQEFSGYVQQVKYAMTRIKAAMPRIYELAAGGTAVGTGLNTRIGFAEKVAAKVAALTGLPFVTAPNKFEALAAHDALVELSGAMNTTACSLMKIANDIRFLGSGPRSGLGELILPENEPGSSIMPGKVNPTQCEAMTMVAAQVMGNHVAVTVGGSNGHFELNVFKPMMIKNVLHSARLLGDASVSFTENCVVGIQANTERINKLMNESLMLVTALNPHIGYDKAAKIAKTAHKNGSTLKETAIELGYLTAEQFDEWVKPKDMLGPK

Q: How did the Potency turn out when `Cc1nc(-c2cccc(F)c2)sc1CCNC(=O)c1ccc(F)c(F)c1` was run?
A: inconclusive [inhibitor, partial curve]

Q: `O=C(O)CC1CCC(c2ccc(-c3ccc(Nc4ccc(C(F)(F)F)nc4)cn3)cc2)CC1` (configuration not stated) was tested. Which “activity change, negative = inhibition” value did it give?
A: inactive: -2.5%

Q: `Cc1nc2c(C(=O)NCCc3ccc(Cl)cc3)c[nH]n2c(=O)c1Cc1ccccc1F` was tested. Which Potency did it give?
A: inconclusive [inhibitor, single point]

Q: How did the Potency turn out when `Cc1ccc2nc(NS(=O)(=O)c3ccc(Cl)cc3)c(Nc3ccc(C(=O)O)cc3)nc2c1` was run?
A: inconclusive [inhibitor, single point]

Q: Which Potency does the source give for `CC1=CC(=O)C(C(C)C)=CC1=O` here?
A: inconclusive [inhibitor, partial curve]

Q: How did the Potency turn out when `COc1cc2c(Oc3ccc(NC(=O)C4(C(=O)Nc5ccc(F)cc5)CC4)cc3F)ccnc2cc1OCCCN1CCOCC1` was run?
A: inconclusive [inhibitor, partial curve, poor fit]

Q: Which “activity change, negative = inhibition” value does the source give for `CCCN1CCN(CCCNC(=O)c2c(C)nn(-c3ccc(F)cc3)c2-n2cccc2)CC1` here?
A: inactive: -4.69%

Q: For `COc1cc(CO)ccc1O[C@@H]1O[C@H](CO)[C@@H](O)[C@H](O)[C@H]1O`, which Potency is on record?
A: inconclusive [activator, full curve, poor fit]

Q: `Cc1c(Cl)ccc2sc(N3CCN(C(=O)CS(=O)(=O)c4ccccc4)CC3)nc12` was tested. Which Potency did it give?
A: inconclusive [inhibitor, partial curve, poor fit]

Q: `Cc1cc(C)c(NC(=O)Cn2c(=O)n(Cc3ccc(C(=O)NCc4ccco4)cc3)c(=O)c3sccc32)c(C)c1` was tested. Which “activity change, negative = inhibition” value did it give?
A: inactive: -6.12%

Q: With `Cc1nnc(N2CCCC(C(=O)NCCc3ccccc3)C2)c2nn(-c3ccccc3)c(C)c12` (configuration not stated) as the compound, how does the Potency read?
A: inconclusive [inhibitor, single point]

Q: With `COc1ccc(C)cc1Nc1nc(N)c2cc(OC)c(OC)cc2n1` as the compound, how does the Potency read?
A: inconclusive [inhibitor, partial curve, poor fit]

Q: For `Cc1ccc(CSc2nc3cccnc3n2Cc2ccc(C(=O)NCCc3cccs3)cc2)cc1`, which “activity change, negative = inhibition” value is on record?
A: inactive: -27.9%

Q: With `COc1ccc2c(Sc3ccc(Cl)cc3)c(C(=O)N3CCCCC3)[nH]c2c1` as the compound, how does the Potency read?
A: inconclusive [inhibitor, partial curve]

Q: How did the Potency turn out when `O=C(Nc1ccc(Br)cc1)c1cccc(S(=O)(=O)N2CCc3ccccc32)c1` was run?
A: inconclusive [inhibitor, partial curve, poor fit]

Q: `CN[C@H]1CCN(C(=O)c2ccc(Nc3ncc(F)c(-c4cnc(C)n4C(C)C)n3)cc2)C1` was tested. Which “activity change, negative = inhibition” value did it give?
A: inactive: -8.97%

Q: Which “activity change, negative = inhibition” value does the source give for `CC1CCC2C(C)(C)C(O)CCC2(C)C12Cc1c(O)cc3c(c1O2)CN(C(CCCN=C(N)N)C(=O)O)C3=O` (configuration not stated) here?
A: inactive: 7.06% [at 53.3 µM]

Q: With `Cc1ccc(N2C(=O)N(Cc3cccc(Cl)c3)c3ccccc3S2(=O)=O)cc1` as the compound, how does the “activity change, negative = inhibition” value read?
A: inactive: -7.85%

Q: With `COc1cc2c(cc1NC(=O)C(C)Oc1ccccc1)oc1ccccc12` (configuration not stated) as the compound, how does the “activity change, negative = inhibition” value read?
A: inactive: -24.2%

Q: How did the Potency turn out when `CCn1cc2nc(SCc3cccc(C(F)(F)F)c3)n(Cc3ccc(C)cc3)c(=O)c2n1` was run?
A: inconclusive [inhibitor, single point]

Q: With `O=C(NCc1ccc(Cl)cc1Cl)c1cccc(N2CCCS2(=O)=O)c1` as the compound, how does the “activity change, negative = inhibition” value read?
A: inactive: -0.0079%

Q: `CN(Cc1ccccc1)C(=O)C1CCN(Cc2cc3ccccc3n2Cc2ccccc2)CC1` was tested. Which “activity change, negative = inhibition” value did it give?
A: inactive: -27.3%

Q: How did the Potency turn out when `Cc1ccc(OCCCC(=O)Nc2sc3c(c2C(N)=O)CCCC3)cc1` was run?
A: inconclusive [inhibitor, partial curve, poor fit]

Q: `COC(=O)c1scc(-c2ccc(C)cc2)c1S(=O)(=O)Nc1c(C)cc(C)cc1C` was tested. Which “activity change, negative = inhibition” value did it give?
A: inactive: -16.1%

Q: Which Potency does the source give for `COc1ccc(NC(=O)CN2C(=O)CC(c3ccco3)Sc3ccccc32)cc1OC` (configuration not stated) here?
A: inconclusive [inhibitor, partial curve, poor fit]

Q: How did the Potency turn out when `CCC(C)NC(=O)c1[nH]c2cc(OC)ccc2c1Sc1ccc(C)cc1` (configuration not stated) was run?
A: inconclusive [inhibitor, single point]

Q: How did the “activity change, negative = inhibition” value turn out when `CCCn1ccc2c(OCC(=O)Nc3ccc(F)cc3F)cccc2c1=O` was run?
A: inactive: -12.2%

Q: With `CCOc1ccccc1N(C)C(=O)NCc1noc2ccccc12` as the compound, how does the Potency read?
A: inconclusive [inhibitor, partial curve, poor fit]

Q: `COc1ccc(OC(C)C(=O)NCc2nc(-c3ccc(Cl)cc3)no2)cc1` (configuration not stated) was tested. Which Potency did it give?
A: inconclusive [inhibitor, partial curve, poor fit]

Q: For `CC(=O)OC1[C@H]2[C@@H](C[C@@H](C)[C@@H]3C=CC(=O)[C@@]13C)OC(=O)[C@@H]2C` (some centres not stated), which Potency is on record?
A: inconclusive [activator, single point]

Q: How did the Potency turn out when `CCc1c(C)sc2c1CCN(C(=O)Nc1cc(OC)c(OC)c(OC)c1)C2c1ccccc1` (configuration not stated) was run?
A: inconclusive [inhibitor, partial curve, poor fit]

Q: For `COc1ccc(NC(=O)c2cn(CC(C)C)c(=O)c3cc(OC)c(OC)cc23)cc1Cl`, which Potency is on record?
A: inconclusive [inhibitor, partial curve, poor fit]

Q: With `C#CC(C)(C)NS(=O)(=O)c1cc(-c2nnc(Nc3ccc(C)cc3)c3ccccc23)ccc1C` as the compound, how does the Potency read?
A: inconclusive [inhibitor, partial curve]

Q: For `Cc1ccc(NC(=O)NCc2ccc3c(c2)CCN3C(=O)c2ccccc2)c(Cl)c1`, which Potency is on record?
A: inconclusive [inhibitor, partial curve]

Q: How did the Potency turn out when `COC(=O)CC1OC(C)C2=C(O)c3c(O)cccc3C(=O)C23OC13` (configuration not stated) was run?
A: inconclusive [inhibitor, partial curve]

Q: For `COc1ccc(NC(=O)CCS(=O)(=O)c2nc(-c3cccs3)cc(C(F)(F)F)n2)cc1OC`, which Potency is on record?
A: inconclusive [inhibitor, partial curve, poor fit]

Q: How did the Potency turn out when `CC(=O)c1cccc(NS(=O)(=O)c2ccc3[nH]c4c(c3c2)CCCCCC4)c1` was run?
A: inconclusive [inhibitor, single point]

Q: Which “activity change, negative = inhibition” value does the source give for `CCOc1ccc(OCC)c(Nc2nc3ccccc3c3nnc(C)n23)c1` here?
A: inactive: 0.998%

Q: `Cc1c(Cl)cccc1NS(=O)(=O)c1ccc2[nH]cc(C(=O)NC3CCCC3)c(=O)c2c1` was tested. Which Potency did it give?
A: inconclusive [inhibitor, single point]

Q: `CCn1nnc2cc(C(=O)Nc3cccc(Cl)c3)ccc21` was tested. Which “activity change, negative = inhibition” value did it give?
A: inactive: -8.81%

Q: How did the Potency turn out when `NC/C=C\C(=O)O` was run?
A: inconclusive [inhibitor, partial curve, poor fit]

Q: For `COC(=O)C1=C(c2ccccc2)c2ccccc2S(=O)(=O)N1CC(=O)Nc1cccc(C(C)=O)c1`, which Potency is on record?
A: inconclusive [inhibitor, single point]

Q: How did the “activity change, negative = inhibition” value turn out when `CC[C@H](C=C[C@@H](C)[C@H]1CC[C@H]2[C@@H]3CC=C4C[C@@H](O)CC[C@]4(C)[C@@H]3CC[C@]12C)C(C)C` was run?
A: inactive: 6.54% [at 20.6 µM]

Q: Which Potency does the source give for `O=C(Nc1ccc2oc(-c3cccc4c(Br)cccc34)nc2c1)c1ccc(F)cc1` here?
A: inconclusive [inhibitor, partial curve, poor fit]

Q: With `CCCCCCC/C=C\CCCCCCCCC(=O)O` as the compound, how does the Potency read?
A: inconclusive [inhibitor, single point]

Q: How did the Potency turn out when `CCOc1cc(C2CC(=O)Nc3cc4c(cc32)OCCO4)ccc1O` (configuration not stated) was run?
A: inconclusive [inhibitor, partial curve, poor fit]

Q: For `COc1cccc(C(=O)N(Cc2cccnc2)c2nc3c(OC)ccc(C)c3s2)c1OC`, which Potency is on record?
A: inconclusive [inhibitor, partial curve]

Q: For `Cc1ccc(S(=O)(=O)NCCc2csc(-c3ccc(Cl)cc3)n2)cc1`, which Potency is on record?
A: inconclusive [inhibitor, single point]

Q: With `Cc1c(Cl)cccc1NC(=O)CCS(=O)(=O)c1ccc2c(c1)oc(=O)n2C` as the compound, how does the Potency read?
A: inconclusive [inhibitor, partial curve, poor fit]

Q: With `Cc1c(-c2ccccc2)oc2c(C(=O)OCCN3CCCCC3)cccc2c1=O` as the compound, how does the “activity change, negative = inhibition” value read?
A: inactive: -3.07% [at 53.3 µM]

Q: With `CCOc1ccc(NC(=O)c2cnn(-c3ccc(C)c(C)c3)c2C2CCN(C(=O)OC(C)(C)C)CC2)cc1` as the compound, how does the Potency read?
A: inconclusive [inhibitor, partial curve, poor fit]

Q: Which “activity change, negative = inhibition” value does the source give for `Cc1ccc(NC(=O)C(=O)NC2CC(C)(C)NC(C)(C)C2)cc1` here?
A: inactive: 5.88%

Q: With `Cc1ccccc1C(=O)Nc1nc2nc(-c3ccccc3)cc(=O)n2[nH]1` as the compound, how does the “activity change, negative = inhibition” value read?
A: inactive: 4.49%

Q: With `Cc1cc(Nc2ncc3cc(-c4c(Cl)cccc4Cl)c(=O)n(C)c3n2)ccc1F` as the compound, how does the “activity change, negative = inhibition” value read?
A: inactive: 4.59%

Q: How did the Potency turn out when `COc1ccc(NC(=O)C2=CC(c3ccc4c(c3)OCO4)=NS(=O)(=O)N2C)cc1` was run?
A: inconclusive [inhibitor, partial curve, poor fit]

Q: With `CC1(C)C2CC(OC3OC(COC4OCC(O)(CO)C4O)C(O)C(O)C3O)C1(C)CC2O` (configuration not stated) as the compound, how does the Potency read?
A: inconclusive [activator, single point]

Q: How did the Potency turn out when `COc1ccc(CCNC(=O)CSc2n[nH]c(-c3ccccc3Cl)n2)cc1OC` was run?
A: inconclusive [inhibitor, partial curve]

Q: Which Potency does the source give for `COc1ccc(Nc2c(-c3ccccn3)nc3ccc(Cl)cn23)cc1` here?
A: inconclusive [activator, full curve]

Q: With `CCN1/C(=C/C=C/c2sc3ccccc3[n+]2CC)Sc2ccccc21` as the compound, how does the “activity change, negative = inhibition” value read?
A: inactive: 0.856% [at 20.6 µM]

Q: For `C#Cc1cccc(Nc2nc3cc(C(=O)O)ccc3c3cncnc23)c1`, which Potency is on record?
A: inconclusive [inhibitor, single point]

Q: With `CCc1ccc(NC(=O)Cn2cc(S(=O)(=O)N3CCCC3)c(S(=O)(=O)N3CCCC3)c2)cc1` as the compound, how does the Potency read?
A: inconclusive [inhibitor, single point]

Q: `C=CC(C)(O)CC/C=C(\C)C(=O)OC1CC2(C(=O)O)CCC3(C)C(=CCC4C5(C)CCC(OC6OC(COC7OCC(O)C(O)C7O)C(O)C(OC7OCC(O)C(O)C7O)C6OC6OC(CO)C(O)C(O)C6OC6OCC(O)C(O)C6O)C(C)(C)C5CCC43C)C2CC1(C)C` (configuration not stated) was tested. Which activity change, negative = inhibition did it give?
A: inactive: -2.91% [at 13.5 µM]
